# Measurements taken from the supplement of paper PMC11417369.
# Some of the results follow.
# Test system: PfAP2-HC AP2 domain (GST-tagged)
# Assay: gcPBM binding intensity (ln(normalized median fluorescence intensity)); higher = stronger DNA binding
# Method in brief: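 GST-tagged P. falciparum DNA-binding domains produced in E. coli were incubated for 1 h on an Agilent 4 × 180k array of primer-extended double-stranded 36-bp intergenic genomic probes with negative controls. Binding intensity is the highest Masliner-normalised natural-log median intensity across replicate spots of either probe orientation, with bound protein detected by Alexa488 anti-GST antibody at 488 nm.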
row,Sequence,gcPBM binding intensity (ln)
1,CTGGAGGATGAAAAAAGTACAAAAGGAGGAAATGTA [XGTACX_site8846],9.44
2,AATATATGGTATAATTGTACAAAAAAAAAAAAAAAA [XGTACX_site1476],9.36
3,CTTTAACCTTTTTATTGTACTTTTAATATTTTAAAA [XGTACX_site4457],9.7
4,TCTTTAATGAACAAATGTACAAGAACAATACCCGCA [XGTACX_site2047],9.64
5,GTGAAATGGAAAAAAAGTACAGATTACATAAGTATT [XGTACX_site6355],9.56
6,TATTAATTTATATCAACACACAAAATCAATATACTT [CACACA_site1757],9.74
7,TTCTATATTTTAGCTGATAATATTATGAGCTTCACT [XGTACX_negctrl_site427],9.57
8,AACATAAATATATATAGTACATATATATATATTCAA [XGTACX_site7287],9.63
9,AAGGAATAATATAAAACACACACATAAATATAAATA [CACACA_site9115],11.4
10,ATATAGATCAGACACACACACATGTTTTAAAACTAT [CACACA_site6186],10.9
11,CGAAATATTATGTACGCACACACATTTTTAATATAT [CACACA_site3852],10.1
12,TTTTGGAATTTTAGCTGTACTTTTCCTATTTTGTAT [XGTACX_site7679],9.99
13,TTCTTTTCTTCTACATGTACAAATATTATATATATA [XGTACX_site2996],9.97
14,TGAAACCATAAAGAATGTACACAGCGGTATAAGTTA [XGTACX_site674],9.8
15,TTAATATATTTAAATATATATAAAATATATAATATG [CACACA_negctrl_site880],9.52
16,TTTTAAATAATACATACATGCATATATACACATATA [TGCATGCA_site8],9.6
17,AATAAAATAAGAAGCACACAAATATTATATATAAAA [CACACA_site3980],9.93
18,TCTTATTTAAAAATAGCACACATTATGTATATATAT [CACACA_site2822],9.84
19,AGCTCGGAAAAATTAGCATGCAAAAAAAAAAAAAAA [TGCATGCA_site658],9.34
20,TATATAACTGTCTTCACACACACATATAAATAAATA [CACACA_site7317],10.2
21,TATTTCACAACTTGTCGTACATTAATTGTATTATTT [XGTACX_site997],10.1
22,ATTATTATTAATAGTACACACTATGGCATTTCAATA [CACACA_site5388],9.69

row,Sequence,gcPBM binding intensity (ln)
1,TTAGGTGTATATAATTGTACATTTTGGAAATTATAC [XGTACX_site5492],9.46
2,ATCTTTCATCTACCAAGTACAAATTACTTTTTTTTT [XGTACX_site7001],9.9
3,TTTTGTTATTATAAATAGTAACATTTGTGAATATAT [TGCATGCA_negctrl_site132],9.42
4,AAGACATTTTTTTGTTGTACGTCTTCATTTATTGTA [XGTACX_site2890],9.69
5,AACAAATAAAAAAAAATAAAAATAAAAATAAAAAAA [XGTACX_negctrl_site451],9.57
6,TTTAAAATTATAAGGATTAAAAAAAAAAAAAATAAA [CACACA_negctrl_site114],9.4
7,AAGAATTATATTAATAGTACATATATATTAATTTAT [XGTACX_site5713],9.52
8,TTATTTATGAAGTATACACACAATATAGATTTATAT [CACACA_site6703],9.64
9,AATATTACAATTTGGTGTACAGGTGCACATGCCTCA [XGTACX_site1730],9.61
10,TCTACAATTTTAATTACACACTATAAAAAAGAAAGA [CACACA_site5624],9.56
11,TAGCTTATAAGATATGCACACACAACACTTACAAAA [CACACA_site8174],10.8
12,ATAATGAAAACAAGCACACATACATAAAATAAAATA [CACACA_site3257],10.5
13,ATGGAAGGATAATAAAAACCTTTACCTTTCTGTTTA [GTGCAC_negctrl_site380],9.45
14,ATAAATTTTTAAACAGCACACATAAATATAATATAT [CACACA_site8691],9.78
15,ATGATTTCACAAGACACACACATACAAATTTATATA [CACACA_site3909],10.2
16,TATTTTATATTTTATGCACACTTATAAGAAATATGT [CACACA_site5647],9.68
17,TTAATATATTATCTGGTGCATAAACACGTTATACCT,9.67
18,CAGTATTACATGAGGACACACACAAAAAAAATATAT [CACACA_site8156],10.3
19,CAAGCTTTTTCCTTTACACACATTAGTTATTTATAT [CACACA_site6781],10.1
20,ATAGGTTCCCAAAATGCACACCAATGAAATTATTTA [CACACA_site8081],9.61
21,ATATTATTTTAAAGTACACACATATATTAAGATATA [CACACA_site5306],9.68
22,CTGTAAAAAATATAAACACACATAGAGATATATAAA [CACACA_site6292],9.84

row,Sequence,gcPBM binding intensity (ln)
1,TTTAATGTTACTCCTTGTACACAAAATAGTGTTATA [XGTACX_site8416],9.72
2,TAAGTATATTTTATATGTACTTATATATTTAATTTT [XGTACX_site4615],9.38
3,TATTAATATGGTAATACACACTAATATACTTTTGTT [CACACA_site6860],9.9
4,ATATATATATATATATGTACGTATTCATAAACAACA [XGTACX_site4282],9.79
5,CAAAATGTTTCTCATTGTACACAAAATAAATGTCCT [XGTACX_site6798],9.49
6,TAATGAATTTAAATTTTAAAATTAATAAAAAAAATA [TGCATGCA_negctrl_site15],9.42
7,ATACATATGTATATTTGTACATATTAGACAATCTTA [XGTACX_site6706],9.37
8,ATTAGTAAATTTATATGTACACATTGTTATTTTATA [XGTACX_site1177],9.75
9,ACATTTACAAGGAAAGTGCATATAAGAAAAATAAAA [GTGCAC_site9587],9.66
10,ATTCTATTATAATACACACCCAAATATTAAAAAGAT [CACACA_site2960],10.2
11,CCACATGATATGATTACACACATATATATATTTACA [CACACA_site164],9.88
12,TATTATATATATATATGTACATATATATGCTAAAAA [XGTACX_site5297],9.66
13,GATGTTGCAAAATTCTGTACATATAAATGTATACAT [XGTACX_site5009],9.64
14,TATTTATTAAAACACACACACACACCCACAAAATAA [CACACA_site241],10.5
15,ATAATATATATATAAACACACAAAAAAAATTATATA [CACACA_site1534],9.86
16,TTATGTATTCATTTTTTTTAAGCACCCCAAAATGAT [CACACA_negctrl_site1344],9.39
17,ATTTTTTTTTATGATACACACTTGGATAATTAAAAC [CACACA_site4473],9.55
18,TTATTCATTTTTATTTGTACATAATTATATGAAATT [XGTACX_site6389],9.58
19,TTTTATATTTTATGCACACTTATAAGAAATATGTAC [CACACA_site3040],9.65
20,GGAAAAAAAAATAAATGTACGAATTAACATATCAAA [XGTACX_site5653],9.54
21,ACACAAGCACACAAATGTACATATATATATATATAT [XGTACX_site5146],9.95
22,TTATTTTCCCTTTGTGCATGCAGTTTACTTTTTGTG [TGCATGCA_site993],9.79

row,Sequence,gcPBM binding intensity (ln)
1,ACTTGTAAGAGACACACACACACACGGATATAAATA [CACACA_site6517],10.7
2,ACACATATATTAAATGTGCACTGAAATATGCATATA [GTGCAC_site9936],9.72
3,CAAAATAAAAATAACACACACATTTATTTATATACA [CACACA_site6679],10.1
4,ATATATGTATATTTATGTACGTATTCCTGTATAGTC [XGTACX_site5763],9.93
5,TGTGTAGGGGATATTCTACTTTAAAAATAAATATAT [CACACA_negctrl_site207],9.67
6,TATAAAAGATTGGAATGTACATAAGAAAAAAATATA [XGTACX_site5028],9.74
7,AATCATATTAGTATGGTGCAACATATATAAATATAT,9.71
8,GGCCCAACTTCTTCTGACGAAAACGTAAATTGTGTG [XGTACX_negctrl_site533],9.71
9,TTCAAGATTTATTATACACACATATTAATATTTATA [CACACA_site6413],9.79
10,GTAACATTTTAAATATATACATATAATGTATTTATA [GTGCAC_negctrl_site344],9.63
11,ATTAAACCGTGGGAGCACACACACACACACACACAT [TGCATGCA_negctrl_site72],10.9
12,TGTTGTATCAATTTTTGTACATAACACATATGTATA [XGTACX_site3666],9.75
13,ATATATATATTATGGGGTACAAACATCAAAAGATTT [XGTACX_site3944],9.65
14,ATTAATTAAAAGGGAACACATAGAAATTATAAAACA [GTGCAC_negctrl_site420],9.71
15,AATGGTATAATCAATACACACATAATATATATATTG [CACACA_site1658],9.8
16,TTAAGATATGTATATCGTACATGACATTAAAAATTT [XGTACX_site3352],9.31
17,TAAAAAAAATACAAAAGTACACAAAATTATACGTTA [XGTACX_site4656],9.75
18,AAATAAATACACATATGTACATATTTTATTTTATTT [XGTACX_site2357],9.71
19,TTGTTAAAAGTATCCATTCTTTATTACTTTTGTTTA [XGTACX_negctrl_site532],9.61
20,TGTACCTTATTAATATATTTAACTCGCCTTATATAC [XGTACX_negctrl_site289],9.82
21,ATTGGGTACAAATACACACACATATATATATTAATA [CACACA_site2376],10.3
22,TCGTAAACATATTGAAAAATATAAAAAGGGGTAATA [CACACA_negctrl_site619],9.66
